Test results reported in PubChem BioAssay AID488969 (Vanderbilt High Throughput Screening Facility, 2010).
Whole data set: some 110,000 compounds, median “z-score” near -0.1, cut for the highest 2% near 2. The list shows a part of the results. The source made the active and inactive calls.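 How the source made its calls: active means z-score in the third read window above 3 or below -3; inactive means the rest.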

target: Metabotropic glutamate receptor 8 (Rattus norvegicus) (UniProt P70579); assay: rat mGluR8 modulators via GIRK flux, primary screen, cell-based, thallium flux, HTS (AID 488969); conditions: HEK293 rat mGluR8, GIRK (G protein-gated inwardly rectifying potassium channel) thallium flux, FluoZin2; at 10 µM; stronger effect = higher value; submaximal glutamate (EC20) added with thallium
Chain of UniProt P70579 (P70579 whole entry, looked up): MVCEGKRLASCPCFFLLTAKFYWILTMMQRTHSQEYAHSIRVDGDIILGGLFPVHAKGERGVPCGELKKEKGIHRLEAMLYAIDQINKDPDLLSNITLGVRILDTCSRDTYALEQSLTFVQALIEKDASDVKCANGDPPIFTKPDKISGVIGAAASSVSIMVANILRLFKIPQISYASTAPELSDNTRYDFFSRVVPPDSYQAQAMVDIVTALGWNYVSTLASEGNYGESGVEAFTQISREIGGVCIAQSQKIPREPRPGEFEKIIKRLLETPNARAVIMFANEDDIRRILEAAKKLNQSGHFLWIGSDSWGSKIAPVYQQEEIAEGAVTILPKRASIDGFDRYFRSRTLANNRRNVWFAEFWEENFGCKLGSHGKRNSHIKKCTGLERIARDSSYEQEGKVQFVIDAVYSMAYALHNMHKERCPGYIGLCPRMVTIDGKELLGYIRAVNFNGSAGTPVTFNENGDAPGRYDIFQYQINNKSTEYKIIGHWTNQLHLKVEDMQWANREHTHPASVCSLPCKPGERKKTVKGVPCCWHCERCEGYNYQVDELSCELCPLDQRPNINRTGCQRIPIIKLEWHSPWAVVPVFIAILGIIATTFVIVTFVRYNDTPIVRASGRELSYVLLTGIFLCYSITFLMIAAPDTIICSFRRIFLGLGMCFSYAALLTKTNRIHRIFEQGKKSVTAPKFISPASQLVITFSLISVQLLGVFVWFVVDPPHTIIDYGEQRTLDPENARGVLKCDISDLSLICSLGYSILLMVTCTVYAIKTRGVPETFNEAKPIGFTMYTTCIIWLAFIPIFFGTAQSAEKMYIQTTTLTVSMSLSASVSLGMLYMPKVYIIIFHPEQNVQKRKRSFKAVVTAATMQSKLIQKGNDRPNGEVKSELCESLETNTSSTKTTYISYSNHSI

Point of comparison: `COc1ccc(C(=O)Nc2nc3cc(OC)c(OC)cc3c(=O)[nH]2)cc1`, z-score -0.0152. Against it:
- CCOC(=O)c1cnn(-c2cc(Oc3ccccc3C)ncn2)c1N — lower, -0.0538
- N#Cc1ccc(NC(=O)COC(=O)CNC(=O)C2CCCCC2)cc1 — lower, -0.185
- c1ccc(-c2nnc(-c3ccccn3)nc2NC2CCCCC2)cc1 — higher, -0.00506
- C=CCNC(=O)c1onc(CSc2ccccc2C)c1C(=O)O — lower, -0.163
- O=C(CN1CCN(S(=O)(=O)c2ccc(Br)cc2)CC1)N/N=C/c1cc([N+](=O)[O-])ccc1Cl — lower, -0.0772
- COc1ccc(C2Nc3ccccc3C(=O)N2c2ccccc2)cc1COc1ccccn1 (centres undefined) — lower, -0.422
- COc1ccc(Cl)cc1NC(=O)CC(C)c1ccccc1 (centres undefined) — lower, -0.123
- COc1ccc([N+](=O)[O-])cc1N(CC(O)CN(C)C)S(=O)(=O)c1ccccc1 (centres undefined) — higher, -0.00357
- CC(C)c1ccc(NC(=O)C(c2ccc3c(c2)OCO3)N2CCCCC2)cc1 (centres undefined) — lower, -0.435
- O=C1/C(=C\c2ccc3c(c2)OCO3)CCC/C1=C/c1ccc2c(c1)OCO2 — higher, 0.0229
- O=C(O)c1cc(-c2ccccc2)on1 — higher, 0.699
- O=C(Nc1cccc(Cl)c1)c1ccncc1 — higher, 0.103
- O=C(COC(=O)c1ccc([N+](=O)[O-])s1)NCc1ccccc1 — lower, -0.333
- COc1cc(N=c2c([N+](=O)[O-])nn(-c3ccc4c(c3)OCCO4)n2O)cc(OC)c1 — lower, -0.0958
- O=S(=O)(Nc1ncn[nH]1)c1ccc2ccccc2c1 — lower, -0.0482
- CC(C)Nc1oc(Cc2cccc3ccccc23)nc1C#N — lower, -0.618
- Nn1c(SCC(=O)Nc2ccc3c(c2)OCO3)nnc1C1CCCCC1 — lower, -0.221
- Cc1cc(C)c(S(=O)(=O)c2ccccc2C)c(Cl)n1 — lower, -0.119
- Cc1ccc(S(=O)(=O)NC2=NCN(Cc3cccnc3)CN2)cc1 — higher, 1.08
- O=C(Nc1ccc(Cc2ccncc2)cc1)C1CC1 — higher, 0.555
- N#Cc1ccsc1NC(=O)CN1CCN(S(=O)(=O)c2cc(Cl)ccc2Cl)CC1 — higher, 0.00396
- C=C1C(=O)O[C@H]2C1CC[C@@](C)(O)C13C=CC(C)(C21)C1(C3)C(=O)O[C@@H]2C3C(C)=CCC3[C@](C)(O)C[C@H](OC(C)=O)C21 (some centres undefined) — lower, -0.257
- Cc1ccc(Cl)c(OCC(=O)Nc2ccc3c(c2)OCCO3)c1 — lower, -0.513
- CC(=S)/C=C1\Sc2ccccc2N1C — higher, 0.0196
- O=S(=O)(c1ccccc1)c1nc(-c2ccccc2Cl)oc1NCCN1CCOCC1 — higher, 0.0264
- CCn1cc(Br)c(C(=O)N2CCN(c3ccccc3)CC2)n1 — higher, 0.339
- Cc1cccnc1NC(=O)C(C)Oc1ccccc1 (centres undefined) — higher, 0.264
- O=c1ccc(Oc2nc(N3CCOCC3)nc(N3CCOCC3)n2)n[nH]1 — higher, 0.106
- CCN(CC(=O)NC(=O)NCc1ccco1)Cc1nc2ccccc2c(=O)[nH]1 — lower, -0.124
- COc1cccc(N2CCN(c3ncnc4c3[nH]c3ccc(F)cc34)CC2C)c1 (centres undefined) — lower, -0.441
- CCOC(=O)NC1(Nc2ccc(Cl)cn2)Oc2ccccc2O1 — higher, 0.12
- Cc1cccc(Nc2nc(-c3ccc4c(c3)OCCO4)cs2)c1 — higher, 0.0122
- COc1ccc(/C=N\NC(=O)COc2ccccc2Cl)cc1Cn1nc(C)cc1C — lower, -0.212
- O=c1c2c(nc3n1CCCCC3)sc1c(O)c(Br)ccc12 — higher, 0.386
- O=C(NCCc1ccccc1)C(=O)N/N=C/c1ccccc1C(F)(F)F — higher, 0.0539
- Cc1nnc(NC(=O)COc2ccccc2)s1 — lower, -0.0838
- COCCCNC(=S)NNC(=O)c1cccnc1 — lower, -0.216
- COC(=O)Cc1c(C)c2ccc(OCC(C)=O)c(C)c2oc1=O — higher, 0.148
- COc1ccc(OC)c(NC(=O)Cn2c(CCC(=O)O)ccc2-c2ccccc2)c1 — lower, -0.23
- O=C1c2cccc3cccc(c23)C(=O)N1OS(=O)(=O)c1ccc(Br)cc1 — higher, 0.431
- COc1cc(/C=N/OCC(=O)NC23CC4CC(CC(C4)C2)C3)ccc1OCc1ccccc1 — higher, 0.0285
- COc1ccccc1C(=O)Nc1ccc(C(=O)/C=C/c2cccs2)cc1 — higher, 0.0741
- CCc1nnc(NC(=O)CSc2nc(-c3ccc(F)cc3)cc(-c3ccccc3)c2C#N)s1 — higher, 2.35
- O=C(CN1C(=O)COc2ccccc21)NCCN1CCC(Cc2ccccc2)CC1 — higher, 0.921
- COC(=O)c1ccc(C(=O)OC)nc1 — lower, -0.118
- COc1ccccc1CC(=O)N1CCN(c2ccccn2)CC1 — higher, 0.0409
- Fc1ccc(CSc2nnc(-c3cc4c(s3)-c3ccccc3CC4)o2)cc1 — lower, -0.19
- Cc1ccc(C(C(=O)NC(C)(C)C)N(Cc2cccs2)C(=O)c2ccc3c(c2)OCCO3)cc1 (centres undefined) — lower, -0.27
- CCOC(=O)c1c(C)nn(Cc2cccc(Cl)c2)c1N — lower, -0.392
- N#Cc1c(NC(=O)c2ccc(Cn3cc(Br)cn3)o2)sc2c1CCCCC2 — lower, -0.86
- CCOc1ccc(C2C(C#N)=C(N)Oc3nc[nH]c(=O)c32)cc1OC (centres undefined) — higher, 0.585
- O=C(NCC1CCCO1)c1sc2cc(Cl)ccc2c1Cl (centres undefined) — lower, -0.499
- O=C(CNC(=O)c1ccc(F)cc1)N/N=C/c1ccc(O)c([N+](=O)[O-])c1 — lower, -0.387
- O=C(COc1ccccc1Cl)OCC(=O)N1CCN(S(=O)(=O)c2ccccc2)CC1 — lower, -0.247
- COCCn1c(CNc2ccc(F)cc2)nnc1SCC(=O)Nc1ccc(OC)cc1OC — lower, -0.09
- CCCCNC(=S)N(Cc1c(C)noc1C)c1ccccc1 — lower, -0.268
- CC(C)n1c(-c2ccco2)csc1=Nc1cccnc1 — lower, -0.3
- O=C(CSc1nnc(-c2ccco2)n1Cc1ccccc1)NCc1ccccc1 — lower, -0.243
- CCOc1ccc(CNC(=O)C2CCN(S(=O)(=O)N3CCCC3)CC2)cc1OC — lower, -0.108
- CCc1nnc(NC(=O)Cn2nc(-c3ccccc3OC)ccc2=O)s1 — higher, 0.121
- Clc1ccc(Oc2cnns2)c(Cl)c1 — lower, -0.233
- Fc1ccc(-c2cc(-c3nnc4n3CCCCC4)c3ccccc3n2)cc1 — lower, -0.316
- O=C(NC1CCCCC1)C(c1ccc2ncccc2c1)N(Cc1ccc2c(c1)OCO2)C(=O)c1cccs1 (centres undefined) — higher, 0.00177
- CCCCOc1ccccc1NC(=O)c1ccc(=O)[nH]c1 — higher, 0.312
- CCOC(=O)c1c(CSc2nc(C)cc(C)c2C#N)n(C)c2cc(Br)c(OC(C)=O)cc12 — lower, -0.463
- CCOc1ccccc1N1CCN(C(=O)Nc2ccc(Cl)c(Cl)c2)CC1 — lower, -0.071
- COc1cccc(NC2c3ccccc3C(=O)N2Cc2ccco2)c1 (centres undefined) — lower, -0.544
- O=C(O)C1CCCCC1C(=O)NCCc1ccc(Cl)cc1 (centres undefined) — lower, -0.235
- COc1ccc(NC(=O)COC(=O)CCCOc2ccc(Cl)cc2Cl)cc1Cl — lower, -0.203
- COc1ccccc1CCNC(=O)C(=O)NCC1OCCN1S(=O)(=O)c1ccc(Br)cc1 (centres undefined) — lower, -0.0454
- Cn1c(=O)c2c(nc(CN3CCC(C(N)=O)CC3)n2Cc2c(Cl)cccc2Cl)n(C)c1=O — lower, -0.541
- COC(=O)C(Cc1ccc(OC(=O)c2ccc(C(F)(F)F)cc2)cc1)N1Cc2ccccc2C1=O (centres undefined) — lower, -0.102
- CCOC(=O)C1CCCCN1C(=O)CCc1c(C)nc2ncnn2c1C (centres undefined) — lower, -0.148
- O=C(NCc1cccnc1)c1cc(Sc2ccccc2Cl)nc2ccccc12 — lower, -0.668
- c1ccc(Cn2nnc3c(N4CCOCC4)ncnc32)cc1 — higher, 0.38
- CC(C)(C)OC(=O)NCCCCCc1nnc(SCC(=O)Nc2cccc(Cl)c2)o1 — lower, -0.352
- COc1cc2c3nnc(-c4ccc(F)cc4)c-3cn(Cc3ccc(C)cc3)c2cc1OC — higher, 0.00189
- Cc1cccnc1NC(=O)C1CCN(S(=O)(=O)c2cccs2)CC1 — higher, 0.38
- O=C(Nc1ccc2c(c1)CCC2)C1CCCO1 (centres undefined) — higher, 0.118
- CC1CCN(C(=O)CNC(=O)Cn2ccc3ccccc3c2=O)CC1 — higher, 0.0333
- COc1ccc(CCNC(=O)CSc2ccccc2)cc1OC — higher, 0.0503
- O=C(Nc1ccccc1)c1ccccc1NC(=O)C1CCCCC1 — lower, -0.109
- O=C(CSc1nnnn1-c1ccc2c(c1)OCCO2)N1CCc2ccccc21 — lower, -0.117
- O=C(NCc1ccccc1)c1ccc(N2C(=O)C3CCCCC3C2=O)cc1 (centres undefined) — lower, -0.0469
- CN(C)c1ccc(NC(=O)CN2CCN(S(=O)(=O)c3cc(Cl)ccc3Cl)CC2)cc1 — lower, -0.25
- COc1ccc(Oc2nc(-c3ccccc3)ncc2S(=O)(=O)c2ccccc2)cc1 — higher, -0.00536
- O=S(=O)(c1ccc(Oc2ccc(Br)cc2)cc1)N1CCOCC1 — higher, 0.609
- Cc1c(/C=N/n2cnnc2)c2ccccc2n1CCOc1ccccc1 — higher, 1.35
- CC(C)(O)C#Cc1ccccc1C(=O)NC(CC(N)=O)C(=O)O (centres undefined) — higher, 0.0593
- COCCN(CCOC)c1nc(S(=O)(=O)c2ccc(C)cc2)c(Cl)s1 — lower, -0.49
- CCN1C(=O)C(CC(=O)Nc2ccc(OC)cc2)N(Cc2cccs2)C1=S (centres undefined) — lower, -0.467
- O=C1c2ccccc2NC(c2ccccn2)N1c1ccc(Cl)cc1 (centres undefined) — lower, -0.0763
- CC1(C)CC2CC(C)(CN2S(=O)(=O)c2ccc(C(=O)Nc3ccc(S(=O)(=O)N4CCOCC4)cc3)cc2)C1 (centres undefined) — lower, -0.113
- CCc1nnc(NC(=O)CSc2nnc(CNc3cccc(Cl)c3)n2CC)s1 — lower, -0.0931
- CN(C)c1cc(-c2ccccc2)nc(N)n1 — lower, -0.197
- CNC(=S)NCCN1CCOCC1 — lower, -0.328
- N#Cc1cn(-c2ccccc2)nc1-c1ccccc1 — lower, -1.14
- COc1ccc(C2SCCN2C(=S)Nc2ccc(Cl)cc2)cc1 (centres undefined) — higher, 1.03
- CCC(C)NC(=O)CC1Oc2ccc(Cl)cc2NC1=O (centres undefined) — higher, -0.00317
- COC(=O)c1cc(NC(=O)c2cccc(C(F)(F)F)c2)c(=O)oc1C/C=N/OCc1cccc(Cl)c1Cl — lower, -0.115
- CCCOC(=O)Nc1cc(OC)c(Cl)cc1OC — lower, -0.241
- CC1=NN(C(=O)c2c(Br)cnn2C)C(O)(C(F)(F)F)C1 (centres undefined) — lower, -0.132
- Cc1ccc(S(N)(=O)=O)cc1NC(=O)C1CC2CCC1C2 (centres undefined) — higher, 0.686
- CCOc1cc(C(=O)N2CCCC2)cc(OCC)c1OCC — lower, -1.19
- Cc1ccc(C(=O)Nc2ccc(S(=O)(=O)NCc3ccco3)cc2)cc1 — higher, 0.0377
- CC(C)NC(=O)c1ccccc1NC(=O)/C=C/c1cccc([N+](=O)[O-])c1 — lower, -0.52

With `O=c1cc(CN2CCOCC2)nc(C2CC2)[nH]1` the z-score was active: 5.57.
With `CN(C)S(=O)(=O)c1cccc(NC(=S)Nc2cc(Cl)cc(Cl)c2)c1` the z-score was active: 8.
